Laboratory results as given in the supplement of paper PMC12217912.
The list shows a part of the results. The full chains were built here from the parent and the listed change. Inactive controls read about 0.05.

B1: TEV protease; numbered along this chain (parent)
chain: MGESLFKGPRDYNPISSSICHLTNESDGHTTSLYGIGFGPFIITNKHLFRRNNGTLVVQSLHGVFKVKDTTTLQQHLVDGRDMIIIRMPKDFPPFPQKLKFREPQREERICLVTTNFQTKSMSSMVSDTSCTFPSGDGIFWKHWIQTKDGQCGSPLVSTRDGFIVGIHSASNFTNTNNYFTSVPKNFMELLTNQEAQQWVSGWRLNADSVLWGGHKVFMVKPEEPFQPVKEATQL

Variants of: B1
Experiment: raw area under fraction-flipped curve 0-4 h after induction (AUC4h, not background-subtracted), DNA-recorder readout of cleavage of the substrate (dimensionless); higher = more cleavage of the substrate by the protease variant
Conditions: temperature: 34 °C; time window: 0-4 h after rhamnose induction
Experimental: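 In vivo DNA recorder in E. coli TOP10(DE3) ΔrhaA at 34 °C. Each TEVp single-site mutant (parent TEVp 0) is paired with a single-site variant of the 7-mer TEVs (canonical ENLYFQ|S). The substrate sits between flexible linkers in a Bxb1-sfGFP-TEVs-SsrA fusion, so cleavage stabilises Bxb1 and speeds flipping of a recombination array, read by NGS. The value is the raw area under the fraction-flipped curve over 0-4 h after rhamnose induction (AUC4h), with ≥20 reads per time point. It is not background-subtracted; inactive controls average about 0.047.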
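Further: Bxb1 expression induced with 0.2% (w/v) L-rhamnose at OD600 near 0.5, cultures sampled hourly, flipped fraction per protease–substrate barcode pair counted by paired-end Illumina sequencing.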

Variant	area with substrate ENLYFQA	area with substrate ENLYFQC	area with substrate ENLYFQD	area with substrate ENLYFQH	area with substrate ENLYFQK	area with substrate ENLYFQL	area with substrate ENLYFQR	area with substrate ENLYFQS	area with substrate ENLYFQT	area with substrate ENLYFQW	area with substrate ENLYFQG	area with substrate ENLYFQI	area with substrate ENLYFQM	area with substrate ENLYFQN	area with substrate ENLYFQP	area with substrate ENLYFQV	area with substrate ENLYFQY	area with substrate ENLYFQF	area with substrate ENLYFQE	area with substrate ENLYFQQ
L56C	0.0941	0.085	0.0499	0.0701	0.0754	0.058	0.062	0.0861	0.0594	0.0663	–	–	–	–	–	–	–	–	–	–
T31E	0.0832	0.0974	0.0638	0.0504	0.0638	0.0661	0.0597	0.0997	0.0739	0.0566	0.0783	0.0599	0.0516	0.0616	0.0556	0.0807	0.0665	–	–	–
P40F	0.0567	0.102	0.065	0.0718	–	0.0473	0.0552	0.0874	0.0658	0.0538	0.0776	0.0681	0.106	0.0719	–	–	0.0636	0.0781	–	–
P40C	0.123	–	0.065	0.0826	0.068	0.0546	0.0612	0.109	–	0.0502	0.143	0.0492	0.0928	0.0796	–	0.0735	–	–	0.0679	0.0826
P40H	0.111	0.0902	0.0992	0.0875	0.0817	0.0607	0.065	0.11	0.0669	0.0655	–	0.0656	0.0945	0.0761	0.0583	–	0.0715	–	–	0.0841
P40R	0.0993	0.134	–	–	0.0521	0.0635	0.0632	0.108	0.037	–	–	–	0.0952	0.0794	0.0422	0.0618	–	–	–	–
P40G	0.0985	0.136	–	–	0.0626	0.0718	0.0598	0.113	0.064	0.0884	0.0995	0.0603	0.0871	0.0868	0.0649	0.0599	0.0899	0.0965	–	–
P40D	0.149	–	0.0584	0.0919	0.0567	–	0.0433	0.112	0.0781	0.075	0.086	–	0.081	0.0751	0.0729	–	0.0812	0.0892	0.0874	–
P40S	0.106	0.118	0.0826	0.077	0.0628	0.0486	0.0603	0.108	0.0638	0.0638	0.113	0.0505	0.0861	0.0814	0.0611	0.0565	–	0.0906	–	–
T44A	0.0759	0.111	0.0415	0.0742	0.0567	0.0604	0.059	0.0909	0.0739	0.0516	0.0819	0.0192	0.0644	0.0502	0.0424	0.0608	0.0674	0.0592	–	–
T44F	0.053	0.0571	0.0597	0.0529	–	0.0609	0.0501	0.0541	0.0455	0.0347	–	0.0713	0.0551	0.0597	–	–	–	0.0348	–	–
L48V	0.0629	0.0634	0.0834	0.0582	0.0527	0.0653	0.0598	0.0692	0.0559	–	–	0.0615	0.0744	0.0579	0.0585	0.0687	–	–	–	0.0909
L48I	0.0811	0.103	0.0398	0.0512	0.0616	–	0.0599	0.0802	0.0564	0.0633	0.101	0.0533	0.0736	–	0.0561	0.0543	0.0505	0.0533	–	–
L48K	0.0538	0.0643	0.0659	0.0757	0.0603	0.0549	0.0595	0.0584	0.0604	0.0593	0.0581	0.0692	0.0571	0.0392	–	0.055	0.0632	–	0.0785	–
L48S	0.051	0.0681	0.0264	0.0285	0.0596	0.0608	0.0548	0.0653	0.066	0.0643	–	0.0546	0.0509	0.0726	–	0.0491	0.0539	0.0702	0.0554	–
L48N	0.0687	0.0486	–	0.0576	0.0615	0.0466	0.0614	0.0631	0.0701	0.0589	–	0.0729	0.0519	0.0472	0.0559	0.0606	–	–	0.0648	–
L48W	0.061	0.0697	–	0.0424	0.0588	0.0569	0.0564	0.0647	0.056	0.0632	0.0591	0.0608	0.0651	0.053	0.0626	0.0701	–	0.0684	–	0.0497
L48R	0.0545	0.063	0.0652	0.0564	0.0656	0.058	0.0601	0.0605	0.0631	0.0456	–	0.0451	0.0811	0.056	–	0.0404	0.0605	–	0.0625	–
L48E	0.0581	0.0563	0.0493	–	–	–	–	0.0604	0.0625	0.0631	0.0645	–	0.0563	0.0586	0.0583	0.0502	–	–	–	–
L48M	0.0834	0.0748	0.0721	–	0.0625	0.0613	0.0586	0.0902	0.0549	0.066	0.0758	0.0548	0.0992	0.0729	0.0552	–	0.0703	–	–	–
L48G	0.0692	0.0666	0.0566	0.0601	0.061	0.056	0.0665	0.0729	0.0651	0.0568	0.0698	0.0722	0.0733	0.0575	0.0633	–	0.0483	0.0954	–	0.0538
L48C	0.063	0.0996	0.0626	0.0716	0.0596	0.0623	0.0725	0.0823	0.0544	–	0.068	0.079	0.0717	0.0725	0.057	0.0676	0.0547	–	–	–
K46S	0.107	0.0878	0.0657	–	0.0603	0.0581	0.0554	0.0962	0.0585	0.0593	0.119	0.0561	0.0763	0.0634	0.0682	0.0485	0.0924	0.0688	–	0.0608
